# Measurements as given in PMC4336329 (PLoS ONE, 2015).
# About 2,200 (0.71%) of roughly 310,000 compounds showed an effect of 50% or more. Effects have a minus sign here. The list shows a part of the results.
# Molecular target: human ether-à-go-go-related gene (hERG) potassium channel (human, UniProt Q12809)
# Assay: primary screen, population patch clamp on CHO cells stably expressing hERG
# Chain of human ether-à-go-go-related gene (hERG) potassium channel (Q12809 whole entry, looked up): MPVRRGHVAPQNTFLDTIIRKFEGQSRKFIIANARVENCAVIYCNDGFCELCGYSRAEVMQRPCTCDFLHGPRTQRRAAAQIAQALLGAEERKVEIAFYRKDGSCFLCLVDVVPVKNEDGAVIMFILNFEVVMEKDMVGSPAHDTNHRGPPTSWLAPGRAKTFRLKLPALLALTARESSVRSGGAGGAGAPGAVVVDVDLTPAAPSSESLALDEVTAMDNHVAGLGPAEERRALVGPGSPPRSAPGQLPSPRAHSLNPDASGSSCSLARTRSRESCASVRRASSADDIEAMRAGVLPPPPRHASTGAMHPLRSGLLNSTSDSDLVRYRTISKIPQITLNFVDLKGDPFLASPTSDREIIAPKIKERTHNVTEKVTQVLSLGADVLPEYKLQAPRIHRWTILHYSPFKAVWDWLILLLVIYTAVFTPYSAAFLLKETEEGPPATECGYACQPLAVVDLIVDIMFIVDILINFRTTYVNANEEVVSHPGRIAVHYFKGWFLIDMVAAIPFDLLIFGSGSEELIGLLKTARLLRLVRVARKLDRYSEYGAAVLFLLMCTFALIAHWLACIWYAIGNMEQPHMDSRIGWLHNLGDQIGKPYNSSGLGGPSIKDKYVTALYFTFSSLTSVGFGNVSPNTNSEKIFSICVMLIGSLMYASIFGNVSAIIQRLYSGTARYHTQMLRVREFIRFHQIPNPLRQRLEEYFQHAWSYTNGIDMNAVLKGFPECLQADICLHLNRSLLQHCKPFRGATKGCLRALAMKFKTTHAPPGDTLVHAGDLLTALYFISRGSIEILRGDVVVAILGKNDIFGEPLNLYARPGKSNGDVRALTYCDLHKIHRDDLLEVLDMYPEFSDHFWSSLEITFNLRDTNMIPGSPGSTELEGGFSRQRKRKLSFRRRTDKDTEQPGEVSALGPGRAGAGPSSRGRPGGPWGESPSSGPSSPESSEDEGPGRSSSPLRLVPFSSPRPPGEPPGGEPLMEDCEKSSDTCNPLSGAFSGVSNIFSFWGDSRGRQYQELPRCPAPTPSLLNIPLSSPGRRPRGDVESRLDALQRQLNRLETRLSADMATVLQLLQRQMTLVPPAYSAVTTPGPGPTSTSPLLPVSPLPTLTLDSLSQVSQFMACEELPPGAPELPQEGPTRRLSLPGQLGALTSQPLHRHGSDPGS
row,SMILES,"hERG current change (%, negative = inhibition) at 1uM [%]"
1,O=C(Nc1ccccc1C(=O)O)c1cccc(NS(=O)(=O)c2ccc(Br)cc2)c1,21.8
2,CC1=C(c2ccc(C)cc2)[N+](=O)C(C)(C)N1[O-],10.2
3,O=C(Nc1ccc(S(=O)(=O)N2CCCCC2)cc1)c1ccc(F)cc1,8.66
4,Cc1ccc(S(=O)(=O)NCc2csc(C)n2)cc1,12.4
5,CCN(CC)C(=O)c1cc(-c2ccc(Br)cc2)on1,1.22
6,CC(C)(C)n1nnnc1C(c1cccnc1)N1CCN(C(=O)c2ccco2)CC1 (stereo not drawn),7.03
7,COc1cc(CN2CCCC(C(=O)N3CCc4ccccc4C3)C2)cc(OC)c1OC (stereo not drawn),-23.1
8,CCOc1ccc2nc(C)cc(Nc3ccc4c(c3)OCCO4)c2c1.Cl,-47
9,CC1(C(O)(C#CCN2CCCCC2)c2ccccc2)CCCC1.Cl (stereo not drawn),1.41
10,COc1ccc(CCNc2cc(C)[nH]c(=O)c2)cc1OC,18.8
11,COc1ccc(NC(=O)N2CCCC(CNS(=O)(=O)c3cccs3)C2)c(C)c1 (stereo not drawn),14.2
12,C#CCNc1ccc(C(=O)OCC)cc1,5.76
13,O=C(CCc1ccccc1O)N/N=C/c1ccc(Sc2cccc3cccnc23)o1,16.9
14,Cc1cc(C)c(NC(=O)COC(=O)c2ccc([N+](=O)[O-])s2)c(C)c1,4.26
15,Cc1cccc2cc(COC(=O)C(C)(C)C)c(=O)[nH]c12,10.8
16,CC1CCCCC1NC(=O)CSc1nnc(-c2ccco2)n1C (stereo not drawn),12.1
17,Cc1ccc(/C=N/n2c(C)nnc2C)cc1,3.87
18,Cc1ccc(SCc2ccc(C(=O)N3CCCC3)cc2)cc1,8.25
19,CC(C)C12CN3CC(C(C)C)(CN(C1)C31C(=O)Nc3ccccc31)C2=O (stereo not drawn),12.3
20,CN(C)S(=O)(=O)N(CC(=O)Nc1ccc(F)c(F)c1)c1ccccc1,-11.5
21,CC(c1ccncn1)N(C)Cc1nc(Cc2ccccc2F)no1 (stereo not drawn),17.7
22,COc1ccc2sc(C)nc2c1NC(C)=O,8.19
23,CCOc1ccc(C2/C(=C(/O)c3ccc4c(c3)CC(C)O4)C(=O)C(=O)N2CC2CCCO2)cc1 (stereo not drawn),9.37

row,SMILES,"hERG current change (%, negative = inhibition) at 1uM [%]"
1,CC(=O)N1CCc2c(sc(NC(=O)Cc3ccc(F)cc3)c2C#N)C1,17.6
2,CCC(CO)Nc1ccc(-c2nn(C)c(=O)c3ccccc23)cc1[N+](=O)[O-] (stereo not drawn),0.743
3,CCOc1ccccc1NC(=O)N1CCC(c2nc3ccccc3[nH]2)CC1,-7.7
4,CC(=O)O[C@H]1CC[C@H]2[C@@H]3CCc4cc(O)ccc4[C@H]3CC[C@]12C,-2.87
5,CCCCN(CCCNC(=O)C1CCN(S(=O)(=O)CC)CC1)c1ccccc1,-16.8
6,COC(=O)c1ccc(N2C(=O)CC(N(C)Cc3ccccc3)C2=O)cc1 (stereo not drawn),13.1
7,Cc1ccc(C2=NN(C(=O)CCC(=O)O)C(c3cccc([N+](=O)[O-])c3)C2)cc1 (stereo not drawn),15.6
8,Cc1ccc(C(O)(C(=O)NN(C(=O)c2ccccc2)c2ccccc2)c2ccc(C)cc2)cc1,5.32
9,Cc1ccccc1S(=O)Cc1ccc(C(=O)NCCN2CCOCC2)o1 (stereo not drawn),25.5
10,COc1ccc(CCCC(=O)NCc2ccccc2)cc1C,12.7
11,CC1(C)CC(=O)C2=C(C1)N(c1ccc(F)cc1)C(=O)CC2c1cccnc1 (stereo not drawn),10.1
12,Fc1cccc(NC(=S)NCCN2CCOCC2)c1,4.14
13,CC1(C)CC(=O)C(N=Nc2ccc(Br)cc2)=C(O)C1,9.56
14,O=C(N/N=C/c1cccc(OC(=O)c2ccc3c(c2)OCO3)c1)c1cncc(Br)c1,15.6
15,Cn1c(SCC(O)c2ccccc2)nnc1-c1ccc2ccccc2c1 (stereo not drawn),-4.32
16,O=C(Cn1nc(Br)nc1Br)c1ccccc1,10.2
17,CCn1c(=O)n(CC)c2cc(S(=O)(=O)N3CCOCC3)ccc21,12.2
18,Br.COc1ccccc1Nc1nc(-c2cccc(N3C(=O)c4ccccc4C3=O)c2)cs1,12.3
19,O=C(C1CCCN(Cc2cccc(Cl)c2)C1)N1CCCCC1.O=C(O)C(=O)O (stereo not drawn),11.9
20,Cc1ccc(-c2csc(NC(=O)CCCc3cccs3)n2)cc1,7.8
21,Cc1cccc2nc(CNC(=O)C3CCC(=O)N(Cc4ccccc4F)C3)cn12 (stereo not drawn),13.7
22,CCC(=O)N1CCc2cc(S(=O)(=O)N3CCCCC3CC)ccc21 (stereo not drawn),14.1
23,O=C(c1ccccc1)N1CCCC(C(=O)N2CCCCCC2)C1 (stereo not drawn),7.12

row,SMILES,"hERG current change (%, negative = inhibition) at 1uM [%]"
1,O=C1NN(c2cccc(Br)c2)C(=O)/C1=C\c1ccc(N2CCOCC2)cc1,14.9
2,c1ccc(-c2nnc3n2-c2ccccc2SC3)cc1,4.65
3,COc1ccc([N+](=O)[O-])cc1NS(=O)(=O)c1ccccc1,3.49
4,CN(C(=O)CCNC(=O)Cn1ccc2ccccc2c1=O)c1ccc(Br)cc1,16.7
5,CCCC(=O)Nc1ccc2c(c1)COC2=O,9.46
6,Cc1ccc(CC2CC(=O)N(c3ccncc3)C2=O)cc1 (stereo not drawn),5.58
7,CN(C)CCCN=C(NO)c1ccc(Cl)cc1Cl,11.2
8,CC(=O)N=c1sc2ccccc2n1C,16.6
9,O=S(=O)(c1cccs1)N1CCN(Cc2cccc(F)c2)CC1,20.4
10,N#C/C(=C\c1ccc(Cl)cc1)c1nc2ncccc2[nH]1,5.52
11,O=C(/C=C/c1ccco1)N1CCc2ccccc21,10.4
12,Cc1ccc(NC(=O)Cn2ccc([N+](=O)[O-])n2)cc1C,8.5
13,CCN1C(=O)C(CC(=O)Nc2cc(C)ccc2C)SC1=Nc1ccc(S(N)(=O)=O)cc1 (stereo not drawn),0.831
14,CCNNC(=O)C(O)(Cc1ccccc1)Cc1ccccc1,18.2
15,O=C(Nc1ccc(CN2CCOCC2)cc1)c1ccc(N2CCCC2)c([N+](=O)[O-])c1,16.9
16,N#Cc1c(N)n(-c2ccccc2N)c2nc3ccccc3nc12,10
17,Cc1ccc(NC(=O)CCNS(=O)(=O)c2ccc3c(c2)oc(=O)n3C)cc1,-3.88
18,Cc1ccccc1NC(=O)c1ccc(-n2cncn2)nc1,1.37
19,Fc1ccc(C2c3[nH]c4ccccc4c3CCN2CCCn2cccn2)cc1 (stereo not drawn),-14.3
20,COc1ccc([C@@H]2[C@H]3C(=O)N(c4cccc(C(F)(F)F)c4)C(=O)[C@H]3ON2C)cc1,-2.9
21,Cc1ccc(C2=CC(c3cccs3)n3nnnc3N2)cc1 (stereo not drawn),-3.6
22,CCN1CCN(C(c2cccs2)C(C)NC(=O)c2c(F)cccc2F)CC1 (stereo not drawn),1.34
23,COc1ccc(C2=NN(C(=O)c3ccc(Cl)c([N+](=O)[O-])c3)C(c3ccccc3)C2)cc1 (stereo not drawn),10.5

row,SMILES,"hERG current change (%, negative = inhibition) at 1uM [%]"
1,O=C(COC(=O)c1cc(-c2cccs2)nn1-c1ccccc1)Nc1ccc(Cl)c([N+](=O)[O-])c1,12.9
2,COc1ccc(OC)c(NS(=O)(=O)c2ccc(Cl)s2)c1,4.05
3,CCn1cc(C(C)NC(=O)COc2ccc(Cl)cc2C)c(C)n1 (stereo not drawn),14.2
4,O=C(C1CC1)N1CCN=C1SCc1cccc(F)c1,8.01
5,Cc1oc(-c2cccc(Cl)c2)nc1CN1CCC(C(=O)NCc2ccco2)CC1,-70.4
6,O=C(COC(=O)c1ccccc1OCc1ccc(Cl)cc1)NC1CC1,7.84
7,CC(=O)c1ccc(OCc2cc(C(=O)N(C)Cc3ccccn3)no2)cc1,-6.77
8,COc1ccc(C(=O)Oc2ccc3c(c2)OCO3)cc1OC,-0.734
9,O=C(O)C1C2CCC(C2)C1C(=O)NCc1ccco1 (stereo not drawn),7.38
10,CCc1ccc(NC(=O)C(C)OC(=O)c2c(C)nn(Cc3ccccc3)c2Cl)cc1 (stereo not drawn),2.51
11,Cc1cccc(-n2c(O)c(C=Nc3cccc(O)c3)c3ccccc3c2=O)n1,11.4
12,CC(=O)c1sc2c(c1N)c(=O)[nH]c(=O)n2-c1ccccc1,9.77
13,COC(C(=O)Nc1ccc(S(=O)(=O)N2CCCCC2)cc1)c1ccccc1 (stereo not drawn),4.34
14,Cc1csc(N/N=C/c2ccccn2)n1,15.5
15,COc1ccc(OC)c(S(=O)(=O)N2CCCC(C(=O)NCc3ccco3)C2)c1 (stereo not drawn),9.49
16,Cn1cccc1/C=C1\SC(=S)N(NC(=O)c2ccccc2Cl)C1=O,-2.66
17,CC1CCN(Cc2ccc(NC(=O)CC3Oc4ccccc4NC3=O)cc2)CC1 (stereo not drawn),3.4
18,CCOc1ccc(C(C)=O)cc1CSc1nnnn1-c1ccc(O)cc1,-19.2
19,CC(C)(C)c1ccc(S(=O)(=O)N2CCCCC2)cc1,4.3
20,COc1ccc(/C(C)=N/NC(=O)OC(C)(C)C)cc1[N+](=O)[O-],10.5
21,Cc1ccc(-n2c(SCC(=O)Nc3cccc(S(N)(=O)=O)c3)nc3ccccc32)cc1,-1.93
